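Values below derive from 48-hour exposures of cells grown in 96-well plates, with endpoints linearly interpolated between the two concentrations bracketing the appropriate inhibition level. GI50 marks 50% less growth. The concentration for full growth arrest is given as TGI.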 Bounds are passed on as bounds.

The assay concerns NCI-H322M lung. Put plainly: NCI-60 cell line screen, 48 h.
`NC1=Nc2cc(Cl)ccc2Sc2nc3ccccc3n21` yielded a TGI above 100 µM.
`CCOCCCn1c2c(c3c(O)cccc31)C(=O)c1ccccc1-2`: the GI50 was 19 µM and the TGI worked out at 59.7 µM.
In the case of `O=C(N=c1ccc2nc(=O)[nH]n(O)c-2c1)C(F)(F)F`, the TGI was above 100 µM.
On the same count and under the same terms, next, `COc1c2c(c3ccccc3c1O)C1C=CC2C1` (centres undefined): 30.7 µM; `S=c1[nH]n2c(CCCCCCCCc3nnc4sc(=S)[nH]n34)nnc2s1`: above 100 µM.
In the case of `CCc1ccc(CCC(=O)Nc2ncc(Cc3ccc(Cl)cc3)s2)o1`, the GI50 was 0.656 µM and the TGI is above 100 µM.
For the molecule `C=C(NC(=O)C(=C)NC(=O)c1csc(C2=NC3c4csc(n4)C4NC(=O)c5csc(n5)C(C(C)(O)C(C)O)NC(=O)C5CSC(=N5)/C(=C/C)NC(=O)C(C(C)O)NC(=O)c5csc(n5)C3(CC2)NC(=O)C(C)NC(=O)C(=C)NC(=O)C(C)NC(=O)C(C(C)CC)NC2C=Cc3c(C(C)O)cc(nc3C2O)C(=O)OC4C)n1)C(N)=O` (centres undefined), the TGI was 36.8 µM.
As for `COc1ccc2c(c1)nc(C(=O)c1ccco1)c(C(F)(F)F)[n+]2[O-]`, the GI50 is above 100 µM and the TGI was above 100 µM.
The molecule `Cc1ccc(C2=C(C#N)C(N)OC3=C2COc2ccccc23)cc1` (centres undefined) had a TGI of 28.5 µM.
Turning to `COc1ccc(/C(COc2ccc3oc(-c4ccccc4)cc(=O)c3c2)=N\O)cc1`, the GI50 was 0.189 µM and the TGI came out at 17.4 µM.
For the molecule `O=C(c1ccc(Cl)cc1)N(C(=S)N1CCN(c2ccccn2)CC1)C1CCCCC1`, the TGI was above 100 µM.
`CC1/C(=N\O)CC(c2ccccc2)N(C)C1c1ccccc1` (centres undefined) came in with a TGI above 100 µM.
The same measure, in the same setting: next, `Nc1ncn2c(n1)nc1ccccc12`: above 100 µM.
Still for that read-out and setting: next, `CCOC(=O)NC(OC)(C(F)(F)F)C(F)(F)F`: above 100 µM.
As to `COc1ccc(Cc2coc3ccccc3c2=O)cc1OC`, the TGI is above 100 µM.
On to `CNC(=O)c1c(NC(=O)c2ccc(C(C)(C)C)cc2)sc2c1CCC(=O)C2`, for which the GI50 is 2.9 µM and the TGI is above 29.1 µM.
In turn, `COc1ccc([C@@H]2CC(=O)N2)cc1` showed a TGI above 100 µM.
`CN(C)CCNC(=O)c1cccc2cc3c(Cl)cccc3nc12` showed a TGI of 7.27 µM.
On the same count and under the same terms, the same measure for `Cn1c(CO)ccc1-c1ccc(-c2ccc[se]2)[se]1`: above 87.2 µM.
Turning to `CCN(CC)CCCNc1cc(OC)cc2nc3cc(Cl)ccc3nc12`, the GI50 was 2.33 µM and the TGI is 9.81 µM.
`CN(c1ccc(C(=O)c2ccc(N(C)S(C)(=O)=O)cc2)cc1)S(C)(=O)=O`: the TGI was above 100 µM.
Still for that read-out and setting: the same measure for `CCOC(=O)C(NC(=O)c1ccccc1)(N1CCN(c2cc3c(cc2F)c(=O)c(C(=O)O)cn3CC)CC1)C(F)(F)F` (centres undefined): above 100 µM.
With `Nc1nc([Se])c2ncn(C3OC(CO)C(O)C3O)c2n1` (centres undefined), the GI50 was 20.9 µM and the TGI is above 100 µM.
Turning to `CC1=C(C(=O)Nc2ccccc2)C(c2cccc3ccccc23)C(C(=O)Nc2ccccc2)=C(C)N1`, the TGI is above 100 µM.
Still for that read-out and setting: next, `CC1=C(/C=C/C(C)=C/C2CC(N(C)C)=CC(=O)O2)C(C)(C)CCC1` (centres undefined): 32.1 µM.
Molecule `O=C(c1ccccc1)C1S(=O)(=O)OCCOS1(=O)=O` had a TGI above 100 µM.
`CCOC(=O)C(Cc1c[nH]c2cc([N+](=O)[O-])ccc12)NS(=O)(=O)c1ccc2ccccc2c1` (centres undefined) displayed a TGI of 50.7 µM.
Same read-out and setting: the same measure for `Cc1oc2c(c1C)S(=O)(=O)C(C#N)=C(N(C)C)N2`: above 100 µM; for `CC(=O)Nc1c(Nc2ccccc2)[nH]c(C)nc1=S`: above 100 µM; for `Cn1ncc2c(Cl)ncnc21`: above 100 µM.
Same read-out and setting: next, `O=C(O)c1ccc(C2=Cc3cc(Cl)ccc3OC2)cc1`: above 100 µM.
On the same count and under the same terms, the same measure for `O=C1CC[C@@]2(O)[C@H]3Cc4ccc(-c5ccccc5)c5c4[C@@]2(CCN3CC2CC2)[C@H]1O5`: 67.3 µM; for `Cc1cc2c(C)n(Cc3ccccc3Cl)nc2c(C(=O)O)c1C`: above 100 µM; for `COc1ccc(C2C(C#N)=C(S)N(C3OC(COC(C)=O)C(OC(C)=O)C(OC(C)=O)C3OC(C)=O)C(c3ccccc3)=C2C(C)=O)cc1` (centres undefined): above 100 µM.
`CC(=O)NC(C)(C)C1CCC(C)=C(c2ccccc2)C1` (centres undefined) came in with a TGI above 100 µM.
Same read-out and setting: the same measure for `CC(O)(P(=O)(O)O)P(=O)(O)OCC(O)CN1CCOCC1` (centres undefined): above 100 µM; for `Cc1n[nH]c(=O)n1/N=C\c1ccccc1`: above 100 µM; for `CC(C)(C)C1CCC2c3c([nH]c4ccccc34)C3C(=O)N(c4ccc(Cl)cc4)C(=O)C3C2C1` (centres undefined): above 10 µM.
On to `CC(=O)c1c2c(cc3c1CC1(C3)Cc3cc4c(c(C(C)=O)c3C1)CCC4)CCC2`, for which the TGI is above 100 µM.
On to `CC(N)(Cc1c[nH]c2cccc(F)c12)C(=O)O` (centres undefined), for which the GI50 was above 1000 µM and the TGI is above 1000 µM.
`CCCCCCCCCCCCCCCCOP(=O)(O)OCC(N)C(=O)O` (centres undefined) came in with a TGI of 66.8 µM.
Consider `OCCN(/N=C\c1ccc2ccccc2c1)C1=NCCN1`, for which the TGI came out at 77.6 µM.
For `CC1=C2[C@@H](CC1)[C@]1(C)O[C@@](C(C)C)(C[C@H]1OC(=O)CO)[C@H]2OC(=O)C1CC1c1ccccc1` (some centres undefined), the GI50 was 17.7 µM and the TGI was determined as 34.9 µM.
In turn, `O=c1oc2ccccc2cc1-c1cn2c(n1)sc1ccccc12` yielded a TGI of 14.2 µM.
For the molecule `CCOC(=O)Nc1ccc2c(c1)c(CCCCCCc1nc3ccccc3c3ccc(NC(=O)OCC)cc13)nc1ccccc12`, the TGI is above 100 µM.
With `COCc1c(-c2cc3cc(C)cc(OC)c3s2)c2c(N)ncnn2c1CN1CCNC(=O)C1`, the GI50 was 2.97 µM and the TGI came out at 22.4 µM.
For `CC1CC/C(=C\c2ccc(F)cc2)C(=O)/C1=C/c1ccc(F)cc1` (centres undefined), the TGI was 20.4 µM.
For the molecule `COc1ccc2c3c([nH]c2c1[N+](=O)[O-])C(C)N(Cc1ccccc1)CC3` (centres undefined), the TGI was above 100 µM.
With `O=C(N/N=C\c1ccc(N(CCCl)CCCl)cc1[N+](=O)[O-])c1cccnc1`, the GI50 was above 100 µM and the TGI is above 100 µM.
Turning to `COC(=O)c1ccc(CN2C(=O)C(Cl)=C(Nc3cccc(Cl)c3C)C2=O)cc1`, the GI50 is 26.4 µM and the TGI was above 100 µM.
The molecule `O=S(=O)(NNc1ccccc1)c1ccccc1` returned a TGI above 100 µM.
The same measure, in the same setting: next, `NC(=O)c1ccccc1[N+](=O)[O-]`: above 100 µM.
As to `CC1(C)CNc2cc(NC(=O)c3cccnc3NCc3ccncc3)ccc21`, the GI50 is 51.8 µM and the TGI is above 100 µM.
As to `CCCCCCCCCCCCCCC(O)C[N+](C)(CCO)CCO` (centres undefined), the TGI came out at 28.6 µM.
The molecule `CC(C)=CCC/C(C)=C/COc1c2ccoc2cc2oc(=O)ccc12` registered a TGI above 100 µM.
The molecule `O=C(CC1OC(O)C(Cl)=C1Cl)c1cccnc1` (centres undefined) showed a TGI above 100 µM.
As for `COc1ccc2c(c1)[nH]c(=O)c1c3cccc(F)c3cn21`, the GI50 was 5.79 µM and the TGI was above 100 µM.
In turn, `N=c1c2c(=S)n(-c3ccccc3)c(=S)n(-c3ccccc3)c2nc(SCCN2CCCC2)n1-c1ccccc1` returned a TGI of 24 µM.
For `COC12C=C/C(=C(/C(=O)OCc3ccccn3)C(=O)CCCCCCCCC3(OC)C=C/C(=C(/C(=O)OCc4ccccn4)C(=O)CCCCCCCC1)O3)O2`, the GI50 was 1.09 µM and the TGI is 2.79 µM.
The like results for `CC(=O)[O-].Cn1ccnc1CNCc1nccn1C.[Cu+2].[O-][Cl+3]([O-])([O-])[O-]` were, in that order, above 100 µM and above 100 µM.
The like results for `O=C1CC(c2cccc(F)c2)Nc2cc3c(cc21)OCO3` (centres undefined) were, in that order, below 0.01 µM and above 100 µM.
`CC(C)(C)c1cc(OCc2nn3c(Cc4ccccc4)nnc3s2)c(Cl)cc1OCc1nn2c(Cc3ccccc3)nnc2s1` yielded a TGI above 100 µM.
The molecule `N/C(=N\N=C\c1ccc(C(F)(F)F)cc1)NO` gave a TGI above 100 µM.
In the case of `C[C@]12CC[C@H]3[C@@H](CC=C4C[C@@H](N5CCCC5)CC[C@@]43C)[C@@H]1C/C(=C\c1cccc(OCCN3CCOCC3)c1)[C@@H]2O`, the GI50 is 7.07 µM and the TGI was above 100 µM.
For the molecule `COc1ccc2c(c1OC)CO[C@@H]2[C@H]1c2c(cc3c(c2OC)OCO3)CCN1S(=O)(=O)c1cn(C)cn1`, the GI50 was 5.46 µM and the TGI is above 100 µM.
As to `O=C(/C=C\c1ccc([N+](=O)[O-])cc1)c1ccccc(=O)c1O`, the TGI worked out at 8.31 µM.
As to `O=C(Nc1cccc(O)c1)c1ccc(NC2=C(Cl)C(=O)N(Cc3ccc(Cl)cc3Cl)C2=O)cc1`, the GI50 was 5.12 µM and the TGI turned out to be 15.8 µM.
As for `O=c1[nH]cc(Cl)c(=O)[nH]1`, the TGI was above 100 µM.
Same read-out and setting: the same measure for `OC(COC(c1ccccc1)(c1ccccc1)c1ccccc1)C(O)CC1SCCS1` (centres undefined): 54.4 µM; for `c1csc(-c2ccsc2-c2cccs2)c1`: above 100 µM; for `O=C(/C=C/c1cccc(Oc2ccccc2)c1)NCc1ccc(C(=O)NCCc2ccccc2)cc1`: above 100 µM.
`COc1cc2c(c(O)c1OC)CC1CCC(=O)N1C2c1cccc2ccccc12` (centres undefined): the TGI is above 100 µM.
On the same count and under the same terms, next, `Nc1ccc(C(=O)N/C(=C\c2cccc([N+](=O)[O-])c2)c2nc3[nH]c(=S)[nH]c(=O)c3[nH]2)cc1`: above 100 µM; `Cc1ccc(S(=O)(=O)SC(C)(C)C)cc1`: above 100 µM.
For the molecule `Cc1cc(S(=O)(=O)Nc2nc3ccccc3nc2-c2ccc(Cl)cc2)c(S)cc1Cl`, the TGI was 32.3 µM.
On the same count and under the same terms, next, `CC(C)=CCc1[nH]c2ccccc2c1C1=C(O)C(=O)C(c2c(CC=C(C)C)[nH]c3ccccc23)=C(O)C1=O`: 14.6 µM.
Same read-out and setting: the same measure for `O=C(O)c1cnc(-n2[nH]c3c(c2=O)CCCC3)[nH]c1=O`: above 100 µM.
In the case of `CCC(C)Nc1ccc(N)cc1` (centres undefined), the GI50 was 7.51 µM and the TGI is above 100 µM.

For the origin of these results see PubChem BioAssay (NCI).
